Data taken from the supplement of paper PMC10037445.
Over roughly 2,900 compounds, “NF-kB SEAP reporter activity, fold change vs agonist alone” has its median near 0.99; the highest 2% begin near 2.6. Some of the results follow.

Experiments:
RAW-Dual [1] = assay: NF-kB SEAP reporter activity, fold change vs agonist alone; higher = enhanced NF-kB activity
In short: (§1)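 Supernatant from RAW-Dual macrophages was read after 20 hours for IRF by QuantiLuc luminescence and for NF-κB by QuantiBlue absorbance at 620 nm. The cells (50,000 cells/well in DMEM, 384-well plates, 37 °C, 5% CO2) had received 50 nL of library stock by pin tool and, 1 h later, a PRR agonist. Reporter activity is expressed relative to agonist-alone wells as fold change, and wells were flagged cytotoxic if IncuCyte confluency was under 70% of agonist controls in both mask sets.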

RAW-Dual [2] = assay: NF-kB SEAP reporter activity, fold change vs agonist alone; cytotoxicity flag (confluency mask): not cytotoxic; higher = enhanced NF-kB activity
In short: as §1

RAW-Dual [3] = assay: NF-kB SEAP reporter activity, fold change vs agonist alone; cytotoxicity flag (confluency mask): cytotoxic (confluency <70% of control); higher = enhanced NF-kB activity
In short: as §1

[4] = agonist: ODN 1826 (TLR9) 0.5 ug/mL
[5] = agonist: Pam2CSK4 (TLR2/6) 0.1 ug/mL
[6] = agonist: Pam3CSK4 (TLR2/1) 0.1 ug/mL
[7] = library stock concentration (final ~1000-fold dilution): 10 mM, cytotoxicity flag (confluency mask): not cytotoxic, agonist: Imiquimod (TLR7) […]
[8] = library stock concentration (final ~1000-fold dilution): 10 mM, cytotoxicity flag (confluency mask): not cytotoxic, agonist: MPLA (TLR4) […]
[9] = library stock concentration (final ~1000-fold dilution): 10 mM, cytotoxicity flag (confluency mask): cytotoxic (confluency <70% of control), agonist: Imiquimod (TLR7) […]
[10] = library stock concentration (final ~1000-fold dilution): 10 mM, cytotoxicity flag (confluency mask): cytotoxic (confluency <70% of control), agonist: MPLA (TLR4) […]

Cl.Nc1c(Br)cc(Br)cc1CNC1CCC(O)CC1 (stereo unspecified)
NF-kB SEAP reporter activity (RAW-Dual [1]; library stock concentration (final ~1000-fold dilution): 2 mM, cytotoxicity flag (confluency mask): not cytotoxic, agonist: Imiquimod (TLR7) […]): 0.669 | NF-kB SEAP reporter activity (RAW-Dual [1]; library stock concentration (final ~1000-fold dilution): 2 mM, cytotoxicity flag (confluency mask): not cytotoxic, agonist: MPLA (TLR4) […]): 1.04

Cl.Nc1c(Br)cc(Br)cc1CNC1CCC(O)CC1 (stereo unspecified) (library stock concentration (final ~1000-fold dilution): 2 mM)
NF-kB SEAP reporter activity (RAW-Dual [2]; agonist: LPS (TLR4) 0.1 ug/mL): 1.14 | NF-kB SEAP reporter activity (RAW-Dual [2]; [4]): 1.03 | NF-kB SEAP reporter activity (RAW-Dual [2]; [5]): 1.18 | NF-kB SEAP reporter activity (RAW-Dual [2]; [6]): 1.19

CC(=O)Oc1cc(C(F)(F)F)ccc1C(=O)O (library stock concentration (final ~1000-fold dilution): 10 mM)
NF-kB SEAP reporter activity (RAW-Dual [2]; agonist: LPS (TLR4) 0.1 ug/mL): 1.25 | NF-kB SEAP reporter activity (RAW-Dual [2]; [4]): 1.01 | NF-kB SEAP reporter activity (RAW-Dual [2]; [5]): 1.23 | NF-kB SEAP reporter activity (RAW-Dual [2]; [6]): 1.16

CC(=O)Oc1cc(C(F)(F)F)ccc1C(=O)O
NF-kB SEAP reporter activity (RAW-Dual [1]; [7]): 1.04 | NF-kB SEAP reporter activity (RAW-Dual [1]; [8]): 1.01

O=c1c(O[C@@H]2OC[C@@H](O)[C@H](O)[C@H]2O)c(-c2ccc(O)c(O)c2)oc2cc(O)cc(O)c12 (library stock concentration (final ~1000-fold dilution): 10 mM)
NF-kB SEAP reporter activity (RAW-Dual [3]; agonist: LPS (TLR4) 0.1 ug/mL): 0.336 | NF-kB SEAP reporter activity (RAW-Dual [3]; [4]): 0.322 | NF-kB SEAP reporter activity (RAW-Dual [3]; [5]): 0.16 | NF-kB SEAP reporter activity (RAW-Dual [3]; [6]): 0.284

O=c1c(O[C@@H]2OC[C@@H](O)[C@H](O)[C@H]2O)c(-c2ccc(O)c(O)c2)oc2cc(O)cc(O)c12
NF-kB SEAP reporter activity (RAW-Dual [1]; [9]): 0.313 | NF-kB SEAP reporter activity (RAW-Dual [1]; [10]): 1.54

CCOC(=O)N1CCC(=C2c3ccc(Cl)cc3CCc3cccnc32)CC1
NF-kB SEAP reporter activity (RAW-Dual [1]; [9]): 1.03 | NF-kB SEAP reporter activity (RAW-Dual [1]; [10]): 0.903

CCOC(=O)N1CCC(=C2c3ccc(Cl)cc3CCc3cccnc32)CC1 (library stock concentration (final ~1000-fold dilution): 10 mM)
NF-kB SEAP reporter activity (RAW-Dual [3]; agonist: LPS (TLR4) 0.1 ug/mL): 0.681 | NF-kB SEAP reporter activity (RAW-Dual [3]; [4]): 0.801 | NF-kB SEAP reporter activity (RAW-Dual [3]; [5]): 0.551 | NF-kB SEAP reporter activity (RAW-Dual [3]; [6]): 0.5

CC1c2cccc(O)c2C(=O)C2=C(O)C3(O)C(=O)C(C(N)=O)=C(O)C(N(C)C)C3C(O)C21 (stereo unspecified)
NF-kB SEAP reporter activity (RAW-Dual [1]; [8]): 1.13

CC1c2cccc(O)c2C(=O)C2=C(O)C3(O)C(=O)C(C(N)=O)=C(O)C(N(C)C)C3C(O)C21 (stereo unspecified) (library stock concentration (final ~1000-fold dilution): 10 mM)
NF-kB SEAP reporter activity (RAW-Dual [2]; agonist: LPS (TLR4) 0.1 ug/mL): 1.81 | NF-kB SEAP reporter activity (RAW-Dual [2]; [4]): 0.966 | NF-kB SEAP reporter activity (RAW-Dual [2]; [5]): 0.896 | NF-kB SEAP reporter activity (RAW-Dual [2]; [6]): 0.885

CCc1ccc(NC(=O)Nc2ccccc2)cc1 (library stock concentration (final ~1000-fold dilution): 10 mM)
NF-kB SEAP reporter activity (RAW-Dual [2]; agonist: LPS (TLR4) 0.1 ug/mL): 1.12 | NF-kB SEAP reporter activity (RAW-Dual [2]; [4]): 0.823 | NF-kB SEAP reporter activity (RAW-Dual [2]; [5]): 0.702 | NF-kB SEAP reporter activity (RAW-Dual [2]; [6]): 0.652

CCc1ccc(NC(=O)Nc2ccccc2)cc1
NF-kB SEAP reporter activity (RAW-Dual [1]; [7]): 0.892 | NF-kB SEAP reporter activity (RAW-Dual [1]; [8]): 1.01

O=C(NOCC1CC1)c1ccc(F)c(F)c1Nc1ccc(I)cc1Cl (library stock concentration (final ~1000-fold dilution): 10 mM)
NF-kB SEAP reporter activity (RAW-Dual [2]; agonist: LPS (TLR4) 0.1 ug/mL): 0.238 | NF-kB SEAP reporter activity (RAW-Dual [2]; [4]): 0.185 | NF-kB SEAP reporter activity (RAW-Dual [2]; [5]): 0.0847 | NF-kB SEAP reporter activity (RAW-Dual [2]; [6]): 0.147

O=C(NOCC1CC1)c1ccc(F)c(F)c1Nc1ccc(I)cc1Cl
NF-kB SEAP reporter activity (RAW-Dual [1]; [7]): 0.193 | NF-kB SEAP reporter activity (RAW-Dual [1]; [8]): 0.202

CS(=O)(=O)CCNCc1ccc(-c2ccc3ncnc(Nc4ccc(OCc5cccc(F)c5)c(Cl)c4)c3c2)o1.Cc1ccc(S(=O)(=O)O)cc1.Cc1ccc(S(=O)(=O)O)cc1.O
NF-kB SEAP reporter activity (RAW-Dual [1]; [8]): 1.99

CS(=O)(=O)CCNCc1ccc(-c2ccc3ncnc(Nc4ccc(OCc5cccc(F)c5)c(Cl)c4)c3c2)o1.Cc1ccc(S(=O)(=O)O)cc1.Cc1ccc(S(=O)(=O)O)cc1.O (library stock concentration (final ~1000-fold dilution): 10 mM)
NF-kB SEAP reporter activity (RAW-Dual [2]; agonist: LPS (TLR4) 0.1 ug/mL): 1.96 | NF-kB SEAP reporter activity (RAW-Dual [2]; [4]): 0.24 | NF-kB SEAP reporter activity (RAW-Dual [2]; [5]): 0.755 | NF-kB SEAP reporter activity (RAW-Dual [2]; [6]): 0.786
